Measured values reported in US4555572A, “Pyrazolo[3,4,5-kl]acridine compositions and methods for their production and use” (Warner-Lambert Company, priority 1984, dated 1985).
Values joined by “and” are separate entries in the source; they are usually repeats but may differ in a detail not shown here. Identical values can stand only once. Counter-ions that a name gives are not always drawn. The name of at least one read-out is uncertain.

System: lymphocytic leukemia P388
Test: in vivo lymphocytic leukemia P388 test
Design: species or system CD2 F1 mice
Settings: intraperitoneally once daily for five days
Experimental: Another test protocol is the in vivo lymphocytic leukemia P388 test. The animals used are either male or female CD2 F1 mice, six or seven animals per test group. The tumor transplant is by intraperitoneal injection of dilute ascitic fluid containing cells of lymphocytic leukemia P388. The test compounds are administered intraperitoneally once daily for five consecutive days at various doses following tumor inoculation. The animals are weighed and survivors are recorded on a regular basis for 30 days. A compound is designated "toxic" if, at a given dose, all animals died prior to four days after the first injection of drug. A ratio of survival time for treated (T)/control (C) animals is calculated. A criterion for efficacy is a ratio T/C times 100 greater than or equal to 125. See Cancer Chemotherapy Reports, Part 3, 3, 1 (1972) for a comprehensive discussion of the protocol.

CCN(CC)CCn1nc2ccc([N+](=O)[O-])c3c2c1-c1cc(OC)ccc1N3.CS(=O)(=O)O [Example 9, N,N-Diethyl-9-methoxy-5-nitropyrazolo[3,4,5-kl]acridine-1(6H)-ethanamine, monomethanesulfonate]
P388 in vivo T/C × 100 (25 mg/kg, monomethanesulfonate): 138
P388 in vivo T/C × 100 (50 mg/kg, monomethanesulfonate): 177

CCOc1ccc2c(c1)-c1nn(CCN(CC)CC)c3ccc([N+](=O)[O-])c(c13)N2.CS(=O)(=O)O [Example 18, N,N-Diethyl-9-ethoxy-5-nitropyrazolo[3,4,5-kl]acridine-2(6H)-ethanamine, methanesulfonate (1:1)]
P388 in vivo T/C × 100 (12.5 mg/kg): 220

CCN(CC)CCn1nc2c3c(c([N+](=O)[O-])ccc31)Nc1ccc(N(C)C)cc1-2.CS(=O)(=O)O.CS(=O)(=O)O [Example 33, 9-(Dimethylamino)-N,N-diethyl-5-nitropyrazolo[3,4,5-kl]acridine-2(6H)-ethanamine, methanesulfonate (1:2)]
P388 in vivo T/C × 100 (12.5 mg/kg): 142
P388 in vivo T/C × 100 (25 mg/kg): 178

CCN(CC)CCn1nc2ccc([N+](=O)[O-])c3c2c1-c1ccccc1N3 [Example 8, yl-5-nitropyrazolo[3,4,5-kl]acridine-1(6H)-ethanamine, monomethanesulfonate]
P388 in vivo T/C × 100 (25 mg/kg): 186 and 165

CCN(CC)CCn1nc2c3c(c([N+](=O)[O-])ccc31)N(C)c1ccc(OC)cc1-2.CS(=O)(=O)O [Example 6, N,N-Diethyl-9-methoxy-6-methyl-5-nitropyrazolo[3,4,5-kl]acridine-2(6H)-ethanamine, monomethanesulfonate]
P388 in vivo T/C × 100 (12.5 mg/kg, monomethanesulfonate): 148
P388 in vivo T/C × 100 (25 mg/kg, monomethanesulfonate): 187
P388 in vivo T/C × 100 (50 mg/kg, monomethanesulfonate): 228

CC(=O)Oc1ccc2c(c1)-c1nn(CCCN(C)C)c3ccc([N+](=O)[O-])c(c13)N2 [Example 47, 2-[3-(Dimethylamino)propyl]-5-nitropyrazolo[3,4,5-kl]acridin-9-ol, acetate (ester), methanesulfonate (salt) (1:1)]
P388 in vivo T/C × 100 (1.56 mg/kg): 232 and 207

CCN(CC)CCCn1nc2c3c(c([N+](=O)[O-])ccc31)Nc1ccc(OC)cc1-2 [Example 43, N,N-Diethyl-9-methoxy-5-nitropyrazolo[3,4,5-kl]acridine-2(6H)-propanamine, methanesulfonate, hydrate (1:1)]
P388 in vivo T/C × 100 (12.5 mg/kg): 167
P388 in vivo T/C × 100 (25 mg/kg): 210 and 176

CCCCOc1ccc2c(c1)-c1nn(CCN(CC)CC)c3ccc([N+](=O)[O-])c(c13)N2.CS(=O)(=O)O [Example 20, 9-Butoxy-N,N-diethyl-5-nitropyrazolo[3,4,5-kl]acridine-2(6H)-ethanamine, methanesulfonate]
P388 in vivo T/C × 100 (12.5 mg/kg, methanesulfonate): 146 and 209
